Article PMC4336329 (PLoS ONE, 2015)
The campaign covered roughly 310,000 compounds. About 14,000 (4.5%) showed an effect of 50% or more. Effects have a minus sign here. This is one part of the list.

The compounds below were run against human ether-à-go-go-related gene (hERG) potassium channel (human, UniProt Q12809) (assay: primary screen, population patch clamp on CHO cells stably expressing hERG).
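Further: peak tail current of the secondary pulse compared with the same well before compound.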

human ether-à-go-go-related gene (hERG) potassium channel, sequence (Q12809 whole entry, looked up): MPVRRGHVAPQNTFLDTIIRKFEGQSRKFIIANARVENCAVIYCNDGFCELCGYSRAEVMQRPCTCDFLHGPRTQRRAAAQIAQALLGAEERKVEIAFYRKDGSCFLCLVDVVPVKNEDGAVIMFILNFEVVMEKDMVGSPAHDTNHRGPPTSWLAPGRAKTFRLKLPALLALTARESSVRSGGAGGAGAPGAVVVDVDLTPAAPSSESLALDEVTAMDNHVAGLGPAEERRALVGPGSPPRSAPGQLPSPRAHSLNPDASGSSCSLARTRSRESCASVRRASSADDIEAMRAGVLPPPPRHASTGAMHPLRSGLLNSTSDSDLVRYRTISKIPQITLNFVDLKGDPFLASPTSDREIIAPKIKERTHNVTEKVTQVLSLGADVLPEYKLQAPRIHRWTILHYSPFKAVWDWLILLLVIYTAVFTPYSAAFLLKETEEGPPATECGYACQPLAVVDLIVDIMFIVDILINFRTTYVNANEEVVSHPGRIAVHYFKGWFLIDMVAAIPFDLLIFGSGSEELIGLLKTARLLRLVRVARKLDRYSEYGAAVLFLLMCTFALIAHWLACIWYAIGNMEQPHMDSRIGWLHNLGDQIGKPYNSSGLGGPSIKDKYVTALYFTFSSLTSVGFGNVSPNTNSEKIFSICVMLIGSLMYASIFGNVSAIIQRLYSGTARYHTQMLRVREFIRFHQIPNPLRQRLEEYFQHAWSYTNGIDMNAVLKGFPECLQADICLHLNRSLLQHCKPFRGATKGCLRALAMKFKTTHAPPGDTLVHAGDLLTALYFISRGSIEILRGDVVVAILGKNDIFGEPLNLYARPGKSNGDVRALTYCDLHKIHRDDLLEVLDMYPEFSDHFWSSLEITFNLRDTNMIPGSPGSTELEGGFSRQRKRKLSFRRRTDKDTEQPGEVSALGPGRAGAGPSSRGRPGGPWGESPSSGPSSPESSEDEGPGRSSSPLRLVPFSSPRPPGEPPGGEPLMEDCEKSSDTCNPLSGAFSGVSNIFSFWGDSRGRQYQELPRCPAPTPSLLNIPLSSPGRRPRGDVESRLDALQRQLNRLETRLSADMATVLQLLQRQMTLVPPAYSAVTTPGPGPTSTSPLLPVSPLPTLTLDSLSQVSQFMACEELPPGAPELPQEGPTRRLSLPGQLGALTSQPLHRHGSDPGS

Compound | hERG current change (%, negative = inhibition) at 10uM [%]
COc1ccc([C@@H]2[C@@H]3C(=O)N(C(C)(C)C)C(=O)[C@@H]3[C@]3(CC(C)C)C(=O)N(c4ccc(C(F)(F)F)cc4)C(=O)N23)cc1 | 8.67
O=C(Cn1cc([N+](=O)[O-])cn1)Nc1nc2ccccc2s1 | -74.6
O=c1[nH]c(=O)n(Cc2ccccc2)c(O)c1/C=N/NCCO | 3.36
CC(C)C1Nc2ccc(C(=O)N3CCN(c4ccccn4)CC3)cc2NC1=O (stereo not shown) | 12.2
COCCn1c(SCC(=O)Nc2ccc(N3CCOCC3)cc2)nc2ccccc21 | -4.58
C/C(NCC(C)(C)CN(C)C)=C(/C#N)C(=O)NCc1ccccc1 | -41.1
O=C(O)c1ccc(S(=O)(=O)c2ccc3c(c2)C(=O)N(NC(=O)c2cccnc2)C3=O)cc1 | -10.8
COC(=O)c1cc2nc(-c3ccccc3)cc(C(F)(F)F)n2n1 | 19.7
O=S(=O)(c1ccc(N2CCC(c3ccc(Cl)cc3)=N2)cc1)N(CCO)CCO | -7.86
CCc1ccc(N2CC(C(=O)N/N=C/c3ccccc3OC)CC2=O)cc1 (stereo not shown) | -7.16
CCC(=O)N(Cc1cc2ccccc2[nH]c1=O)C(C)C | 9.4
COc1cc(CNn2c(C)n[nH]c2=S)cc(Br)c1OCc1ccc(F)cc1 | 11.8
Clc1ccccc1-c1cc(COc2ccc3ccccc3c2)no1 | 12.9
NC(=O)c1nn(-c2ccccc2)nc1NC(=O)CN1CCCCC1 | -8.81
CC(=O)c1cccc(NC(=S)NC(=O)C(C)C)c1 | 0.165
CC[N+]1(CC)CC2=Cc3c(ccc4ccccc34)C(C)C2C1.[Br-] (stereo not shown) | -12.1
COc1ccc(S(=O)(=O)N(C)CC(=O)O)c2ccccc12 | 11.2
COC(=O)CC1C(=O)NCCN1C(=O)CSc1nc2ccccc2o1 (stereo not shown) | 10.6
S=C1NCCc2ccccc2C1c1ccccc1Cl (stereo not shown) | -6.1
O=C(NCc1cccnc1)C12CC3CC(CC(Cl)(C3)C1)C2 | 12.9
CCN(C(=O)COC(=O)c1ccc(Cl)c(N)c1)C1CCS(=O)(=O)C1 (stereo not shown) | 25.1
Cc1cccc(C(=O)OC(C)C(=O)NC2CCCc3ccccc32)c1O (stereo not shown) | -6.58

Compound | hERG current change (%, negative = inhibition) at 10uM [%]
COc1ccc(C(CNC(=O)c2ccc(C)c(S(=O)(=O)Nc3ccccc3OC)c2)N2CCCC2)cc1 (stereo not shown) | -66.2
CC1=NN(c2ccccc2)C(=O)C1N=Nc1ccccc1 (stereo not shown) | 18.2
O=C(NCc1cccnc1)C(=O)NCC1OCCN1S(=O)(=O)c1ccccc1 (stereo not shown) | 0.407
CC(C)N(C(=O)COC(=O)c1ccc(Cl)nc1)C(C)C | 3.64
Cc1ccc(-c2csc(NC(=O)CSc3nnc4c(n3)[nH]c3ccccc34)n2)cc1 | 18.6
C1CC1Cc1noc(CN2CCN(CC3CC3)CC2)n1 | -8.98
CCOc1ccc(S(=O)(=O)N2CCN(S(=O)(=O)c3ccc(OCC)cc3)C(C)C2)cc1 (stereo not shown) | -21.2
CCn1c(CN(C)c2ccccc2)nc2ccccc21 | -2.96
CN1C(=O)N(C)C(=O)C2(Cc3cc([N+](=O)[O-])ccc3N(C)C2)C1=O | 2.72
CCN(CC(=O)Nc1ccc(NC(C)=O)cc1)C(=O)/C=C/c1cn(Cc2ccccc2)nc1-c1cccnc1 | -8.04
COc1cc(OC)c2c(OC)cccc2n1 | -9.52
N#C/C(=C(/O)CCCl)c1ccccn1 | 29.8
CC(=O)N1CCc2cc(S(=O)(=O)CCC(=O)Nc3ccccc3F)ccc21 | 13.3
CC(C)CC1(C)NC(=O)N(CC(=O)Nc2cccc(S(=O)(=O)N(C)c3ccccc3)c2)C1=O (stereo not shown) | -5.27
COc1ccc(CNC(=O)CN(Cc2cccs2)C(=O)CCC(=O)Nc2ccccn2)cc1 | -41.1
Cc1ccc(C(=O)NCc2ccncc2)cc1S(=O)(=O)N1CCCCC1 | -30.5
COc1ccc(C(=O)Nc2nnc(S(=O)(=O)N3CCC(C)CC3)s2)cc1OC | 4.93
O=C(COC(=O)c1ccc(N2CCOCC2)c([N+](=O)[O-])c1)Nc1ccc2c(c1)OCO2 | 4.1
CS(=O)(=O)N1CCC(C(=O)Nc2ccc(C(N)=O)cc2)CC1 | 13.2
COC(=O)Nc1ccc(SCC(=O)c2ccccc2)cc1 | 13.3
O=C1CCc2ccc(NS(=O)(=O)c3ccc(F)cc3)cc2N1 | 5.58
COCCN(C(=S)Nc1cc(C)ccc1C)C(C)c1cccnc1 (stereo not shown) | -25.4

Compound | hERG current change (%, negative = inhibition) at 10uM [%]
OCC1OC(n2cnc3c(NC4CCCC4)ncnc32)C(O)C1O (stereo not shown) | 3.62
O=C1C=CC(=O)N1N(c1ccccc1)c1ccccc1 | -9.09
O=C(N=C1SC2CS(=O)(=O)CC2N1c1cccc(Cl)c1Cl)C1CCCO1 (stereo not shown) | 4.19
COc1cc(C)c(S(=O)(=O)Nc2ccccc2F)cc1C | 6.11
COc1cc(OC)c(OC)cc1/C=N/Nc1ccc(Cl)nn1 | 15.3
Cc1cc(C)cc(C(=O)Nc2cccnc2)c1 | 10.1
NC(=O)C1(N2CCCCC2)CCN(Cc2ccccc2)CC1 | 2.53
NS(=O)(=O)c1ccc(NC(=S)NCc2ccccc2)cc1 | 21
COCCNC(=O)C(=O)NCC(c1ccc2c(c1)OCO2)N1CCN(c2ccc(F)cc2)CC1 (stereo not shown) | -34.6
CC(=O)Nc1ccc(N2C(=O)CC(Sc3nccc(C)n3)C2=O)cc1 (stereo not shown) | 12.3
CC1=NN(C(=O)Cn2nc([N+](=O)[O-])c(Br)c2C)C(O)(C(F)(F)F)C1 (stereo not shown) | -2.33
Cc1cccc(C(=O)O/N=C(\c2ccccc2)c2cccnc2)c1 | -39.9
CCOC(=O)C(O)(CC(=O)c1ccc(OC)cc1)C(F)(F)F (stereo not shown) | 4.98
O=C(O)C(=O)O.OC(Cn1cnnc1)c1ccccc1 (stereo not shown) | 10.2
CC1=NN(C(N)=S)C(=O)C1N=Nc1c(Br)cc(Br)cc1Br (stereo not shown) | -8.08
COc1ccc(N2C(=O)CSC2c2ccc(F)cc2)cc1 (stereo not shown) | 0.924
CCO[C@@H]1OC(C(=O)N2CCOCC2)=C[C@H](c2ccccc2)[C@H]1CCCO | 20.2
COc1ccc(/C=N/N=C/c2ccc(OC)c(OC)c2)cc1OC | 11.7
NS(=O)(=O)c1ccc(CCNC(=O)CSc2nc3ccccc3c(=O)n2CCC(=O)N2CCCCC2)cc1 | 19.8
CCCc1c(C(=O)N/N=C/c2ccccc2C(F)(F)F)nnn1-c1nonc1N | 11.8
O=S(=O)(NCCc1ccccc1)c1cccc2cccnc12 | -17.4
COc1ccccc1-c1cc(N)n(S(=O)(=O)c2ccc(F)c(C)c2)n1 | 3.04

Compound | hERG current change (%, negative = inhibition) at 10uM [%]
Cc1c(N=Cc2ccc[nH]2)c(=O)n(-c2ccccc2)n1C | 13.6
CC(C)CNC(=O)c1cccc(NC(=O)c2ccc(Cl)c([N+](=O)[O-])c2)c1 | -49.9
S=C(Nc1ccc(Cl)cc1)NC1CCCCC1 | 5.84
COc1ccccc1C(=O)N/C(=C/c1ccccc1)C(=O)Nc1ccc(C(=O)O)cc1 | 21.8
CCN(CC)C(=O)c1ccc(COc2ccccc2Cl)o1 | -18.1
Cc1sc(NC(=O)COc2ccccc2)c(C#N)c1-c1ccccc1 | 2.55
Cc1cccc(CN2CCCC(C(=O)Nc3ccc(-c4cscn4)cc3)C2)c1 (stereo not shown) | -31.5
COc1ccccc1CNC(=O)CSc1ccc(-c2cccs2)nn1 | -17.1
N#Cc1ccc(/C=C/C(=O)c2ccc3c(c2)OCO3)cc1 | 2.93
CNS(=O)(=O)c1cnccc1N1CCN(c2cccc(C(F)(F)F)c2)CC1 | -14
Cc1ccc(N(C(=O)CC2NC(=O)NC2=O)C2(C(=O)NC3CCCC3)CCCCC2)cc1 (stereo not shown) | 8.11
N#Cc1ccc(OCc2nnc3n2CCCCC3)cc1 | -17.5
CCCCCCc1cc2cc(/C(N)=N/NC(=O)c3ccncc3)c(=O)oc2cc1O | 14.4
COc1ccc(Nc2ncnc3c2cnn3Cc2ccccc2)cc1 | -18.1
Cc1cccc(C)c1-n1nnnc1C1(Nc2ccccc2)CCCCC1 | -4.36
CCOc1ccc(NC(=O)C2CCN(S(=O)(=O)CC)CC2)cc1 | 15.7
CC(C)CCn1c(C(C)O)nc2ccccc21 (stereo not shown) | 12.7
Cc1ccccc1NS(=O)(=O)c1cc(OCC(N)=O)c(C)cc1Cl | 5.68
Cc1ccc(N(C)C(=O)CC(C)S(=O)(=O)c2ccc3c(c2)NC(=O)CO3)cc1 (stereo not shown) | -1.4
CN(C)C(=O)c1cc(-c2ccccc2)no1 | 32.8
O=C(COC(=O)CCSc1ccccc1Cl)Nc1ccc(F)cc1F | 4.36
COc1cnc(-c2ccccn2)nc1Oc1cccc(C(F)(F)F)c1 | 2.9
